The assay addresses human FLT3 (hFLT3) (human) (UniProt P36888). The assay is described as follows: SPR, Table 6, scFv format; set-up and antigen species not described. For orientation: SPR reads the build-up and loss of mass on a sensor chip optically.
UniProt P36888, sequence (P36888 27-543 limits assumed): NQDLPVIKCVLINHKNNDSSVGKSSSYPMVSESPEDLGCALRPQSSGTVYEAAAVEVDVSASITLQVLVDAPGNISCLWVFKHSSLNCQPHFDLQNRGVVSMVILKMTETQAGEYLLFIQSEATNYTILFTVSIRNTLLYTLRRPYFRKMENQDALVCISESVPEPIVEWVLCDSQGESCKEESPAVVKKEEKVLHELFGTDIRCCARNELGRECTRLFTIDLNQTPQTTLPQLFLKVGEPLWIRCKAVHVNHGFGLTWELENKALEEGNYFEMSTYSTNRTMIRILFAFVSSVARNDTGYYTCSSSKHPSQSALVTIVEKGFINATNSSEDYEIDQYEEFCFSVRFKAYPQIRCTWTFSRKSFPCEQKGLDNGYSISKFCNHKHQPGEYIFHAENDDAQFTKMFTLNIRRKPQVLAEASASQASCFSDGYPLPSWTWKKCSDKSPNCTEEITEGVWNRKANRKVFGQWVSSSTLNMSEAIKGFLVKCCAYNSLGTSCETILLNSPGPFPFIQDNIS

B1: P4F6 (scFv format) (scFv, part only; not given: linker, domain order, tags, V domains shown, not shown: another chain or arm of the molecule; small tags and cut ends)
VH: QVQLVQSGAEVKKPGSSVKVSCKASGGTFGSYGISWVRQAPGQGLEWMGGIIPIFGTVTYAQKFQGRVTITADESTRTAYMELSSLRSEDTAVYYCARDSWSGATGASDTWGQGTLVTVSS
VL: [about 100 residues omitted here]RTFGQGTKVEIK
B1 returned a Kd of 15.1 nM, a koff of 0.00199 s⁻¹ and a t1/2 of 5.8 min.

The Kd is the constant that tells how readily two partners part at equilibrium. A low value points to a tighter complex. Usually koff stands for the rate constant with which the complex falls apart. Low values mean slow dissociation, high ones fast dissociation.
